PubChem BioAssay AID504339 (National Center for Advancing Translational Sciences (NCATS), 2011)
The campaign covered roughly 390,000 compounds. About 17,000 (4.4%) were called active. The shares of active, inactive and inconclusive entries below differ from those in the screen. Calls come from the whole dose curve; as a rule, active = well fitted inhibition curve with a large enough effect; inconclusive = small, poorly fitted or top-dose-only effect; inactive = no such curve, though single readings can be large or run the other way. Where the call is inconclusive, the potency comes from a doubtful curve fit.
Note: nearly all actives have a fitted effect of over 50% in size.
Potency is the fitted concentration of half-maximal effect; tags give direction and shape of the fitted curve.

Each compound was assayed against Lysine-specific demethylase 4A (Homo sapiens) (UniProt O75164) (assay: qHTS Assay for Inhibitors of JMJD2A-Tudor Domain). Settings: AlphaScreen JMJD2A-Tudor / H3K4me3 peptide binding; series mostly up to 114 µM.
Chain of UniProt O75164 (O75164 whole entry, looked up, the tested form may be a part): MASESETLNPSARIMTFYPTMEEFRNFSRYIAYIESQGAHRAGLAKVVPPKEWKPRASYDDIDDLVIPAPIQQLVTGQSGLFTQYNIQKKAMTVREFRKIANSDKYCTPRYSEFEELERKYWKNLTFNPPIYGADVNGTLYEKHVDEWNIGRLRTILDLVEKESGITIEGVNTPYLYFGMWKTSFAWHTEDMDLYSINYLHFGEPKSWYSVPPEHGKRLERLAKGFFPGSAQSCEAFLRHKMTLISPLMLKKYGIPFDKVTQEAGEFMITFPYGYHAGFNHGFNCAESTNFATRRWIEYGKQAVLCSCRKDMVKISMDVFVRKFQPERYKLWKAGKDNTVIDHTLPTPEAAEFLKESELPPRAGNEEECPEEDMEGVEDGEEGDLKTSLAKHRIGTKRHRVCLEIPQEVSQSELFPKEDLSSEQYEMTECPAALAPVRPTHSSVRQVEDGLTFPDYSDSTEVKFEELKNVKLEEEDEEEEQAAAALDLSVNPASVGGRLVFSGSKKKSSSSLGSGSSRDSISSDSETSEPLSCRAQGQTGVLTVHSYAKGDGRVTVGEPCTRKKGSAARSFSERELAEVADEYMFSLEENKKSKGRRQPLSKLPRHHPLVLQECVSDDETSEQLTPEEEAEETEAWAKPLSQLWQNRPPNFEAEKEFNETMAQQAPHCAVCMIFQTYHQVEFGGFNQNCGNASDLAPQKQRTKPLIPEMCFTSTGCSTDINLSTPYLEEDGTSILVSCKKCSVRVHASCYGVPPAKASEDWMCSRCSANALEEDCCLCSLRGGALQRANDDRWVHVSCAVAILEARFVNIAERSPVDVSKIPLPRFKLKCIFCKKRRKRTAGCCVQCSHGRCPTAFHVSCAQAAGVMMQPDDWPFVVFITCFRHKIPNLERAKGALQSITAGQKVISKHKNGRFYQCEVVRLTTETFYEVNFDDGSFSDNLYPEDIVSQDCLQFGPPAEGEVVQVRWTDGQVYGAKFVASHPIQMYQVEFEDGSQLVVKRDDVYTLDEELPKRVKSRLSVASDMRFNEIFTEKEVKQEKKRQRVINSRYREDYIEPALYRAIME
CCC1=NN2C(=N)/C(=C/c3cc(C)n(Cc4ccccc4)c3C)C(=O)N=C2S1 was tested, and the Potency was “inactive”. NNc1nc2cc3c(cc2s1)OCCO3 was tested, and the Potency was “inactive”. In the case of O=C(Nc1nnc(-c2ccco2)o1)c1ccc(S(=O)(=O)N2CCOCC2)cc1, the Potency is reported as active: 79.4 µM. In the case of CCOC(=O)C1=C(C(C)=O)C(c2cccnc2)C(C#N)=C(N)O1 (stereo not given), the Potency is reported as inconclusive: 15.8 µM [inhibitor, partial curve, poor fit]. Cc1cccc(NC(=S)NCC(c2cccnc2)N(C)C)c1 (stereo not given) was tested, and the Potency was “inactive”. In the case of O=C(c1ccc(C(=O)N2CCCc3ccccc32)s1)N1CCCc2ccccc21, the Potency is reported as inconclusive: 35.5 µM [inhibitor, partial curve]. O=C(NCCC(=O)N(Cc1ccco1)Cc1cccs1)c1ccccc1Cl was tested, and the Potency was “inactive”. For COc1ccc(OCc2ccc(-c3nc(C#N)c(N4CCN(c5cccc(Cl)c5)CC4)o3)o2)cc1, the Potency was “inactive”. Cc1cc(NN)nc2ccc(Cl)cc12 was tested, and the Potency was inconclusive: 89.1 µM [inhibitor, partial curve]. CN(C)c1ccccc1C(=O)N1CCCC(C(=O)c2ccc3ccccc3c2)C1 (stereo not given) was tested, and the Potency was inconclusive: 35.5 µM [inhibitor, full curve]. In the case of CCOc1ccc(NC(=O)c2c(NCc3sccc3C)sc3c2CCCCC3)cc1, the Potency is reported as inconclusive: 50.1 µM [inhibitor, partial curve]. Cc1cc(-c2nnc(SCC(=O)Nc3ccccc3C(F)(F)F)n2N)n[nH]1 was tested, and the Potency was inconclusive: 15.8 µM [inhibitor, full curve]. O=C1NN(c2ccccc2)C(=O)/C1=C\c1cccc(OC(=O)c2cccs2)c1 was tested, and the Potency was inconclusive: 56.2 µM [inhibitor, partial curve]. In the case of S=c1[nH]nc(-c2cc(-c3ccco3)[nH]n2)n1-c1cccc2ccccc12, the Potency is reported as active: 89.1 µM. In the case of CCOC(=O)N1CCc2c(sc(NCc3ccc(N(C)C)cc3)c2C(=O)Nc2ccc(OC)cc2)C1, the Potency is reported as active: 14.1 µM. COc1ccc(C(c2nnnn2C2CCCC2)N2CCN(C(=O)c3ccco3)CC2)cc1OC (stereo not given) was tested, and the Potency was inconclusive: 17.8 µM [inhibitor, single point]. With O=c1c2sc3ccccc3c2n(Cc2cccc(C(F)(F)F)c2)c(=O)n1Cc1ccccc1 the Potency was “inactive”. With N#CCCN(C(=S)NC(=O)c1cccs1)c1ccccc1F the Potency was inconclusive: 56.2 µM [inhibitor, partial curve]. Cc1ccccc1C(=O)NNC(=O)c1cccn1C was tested, and the Potency was “inactive”. CCCc1cc(CN2CCOCC2)c(O)c(CN2CCOCC2)c1O was tested, and the Potency was active: 11.2 µM. For NNC(=S)NC1CC2CC1C1C=CCC21 (stereo not given), the Potency was inconclusive: 50.1 µM [inhibitor, partial curve]. In the case of COc1ccc(/C=C2\Sc3ccc(C(=O)N4CCOCC4)cc3N(C)C2=O)cc1, the Potency is reported as active: 56.2 µM. CCSc1ncc(Cl)c(C(=O)N(Cc2ccc(N(C)C)cc2)C2CCS(=O)(=O)C2)n1 (stereo not given) was tested, and the Potency was inconclusive: 22.4 µM [inhibitor, full curve]. For Oc1ccccc1C=NN=C1c2ccccc2-c2ccccc21, the Potency was active: 15.8 µM. O=C(O)c1ccc(-n2cccc2/C=C2/NC(=O)N(c3ccccc3)C2=O)cc1 was tested, and the Potency was active: 25.1 µM. In the case of Cc1ccc(-n2cnc3c(=O)[nH]cnc32)cc1[N+](=O)[O-], the Potency is reported as “inactive”. For CCOc1cccc2sc(N(CCCN(C)C)C(=O)c3ccc(S(=O)(=O)N4CCCCCC4)cc3)nc12, the Potency was inconclusive: 89.1 µM [inhibitor, partial curve]. In the case of Cc1ccc(-c2nc3ccccn3c2Nc2ccc(F)cc2)o1, the Potency is reported as inconclusive: 39.8 µM [inhibitor, partial curve]. With CC(CCc1ccccc1)NC(=O)COC(=O)c1cccc(N(C)C)c1 (stereo not given) the Potency was inconclusive: 63.1 µM [inhibitor, partial curve]. For COc1ccc(C(=O)NCCCc2ccccc2)cc1OC, the Potency was “inactive”. For CC1CCc2c(C(=O)NCc3ccccn3)csc2C1 (stereo not given), the Potency was inconclusive: 89.1 µM [inhibitor, single point]. With [O-][n+]1c2cc(C(F)(F)F)ccc2c2n1CCN=C2c1ccc(Cl)cc1 the Potency was inconclusive: 39.8 µM [inhibitor, partial curve]. CCOc1ccc(CN2C(=O)c3ccccc3Sc3ccc(C(=O)NC)cc32)cc1 was tested, and the Potency was inconclusive: 11.2 µM [inhibitor, full curve, poor fit]. For Cc1[nH]c2ccccc2c1CN1CCC(Cc2ccccc2)CC1, the Potency was active: 0.794 µM. For COc1cc(Br)c(-c2sc(Nc3ccccc3)n[n+]2-c2ccc(F)cc2)cc1OC, the Potency was active: 79.4 µM. With CSc1ccc(COC(=O)c2cc([N+](=O)[O-])ccc2N2CCOCC2)cc1 the Potency was inconclusive: 20 µM [inhibitor, full curve]. For COc1ccc(NC(=O)Cn2c(=O)oc3cc(S(=O)(=O)NCc4ccccc4)ccc32)c(OC)c1, the Potency was “inactive”. CCOC(=O)c1c(-c2ccco2)csc1NC(=O)COC(=O)c1cnc(C)cn1 was tested, and the Potency was inconclusive: 39.8 µM [inhibitor, partial curve]. In the case of CCCCCC1=CCC/C1=N\NC(=O)c1ccc2c(c1)OCO2, the Potency is reported as inconclusive: 79.4 µM [inhibitor, single point]. With CCn1c(COc2ccc(C)cc2)nc2ccccc21 the Potency was “inactive”. N#CN=c1snc(-c2ccccc2)n1-c1ccc(Br)cc1 was tested, and the Potency was “inactive”. Cc1ccccc1Nc1nc(N)nc(CN(C)c2ccccc2)n1 was tested, and the Potency was inconclusive: 79.4 µM [inhibitor, partial curve]. With Cc1ccc(-c2nc3nc(C)cc(C)n3c2Nc2ccc3c(c2)OCCO3)cc1 the Potency was inconclusive: 39.8 µM [inhibitor, full curve]. CC(=O)N1CCc2cc(Br)cc(S(=O)(=O)N3CCC(C)CC3)c21 was tested, and the Potency was “inactive”. With Cc1ccccc1OCCN1C(=O)C(=O)c2cccc(C)c21 the Potency was inconclusive: 28.2 µM [inhibitor, partial curve]. For CC1CCN(c2oc(-c3ccc(COc4ccccc4)o3)nc2C#N)CC1, the Potency was inconclusive: 35.5 µM [inhibitor, partial curve]. For CS(=O)(=O)c1cccc(-c2nnc(NC(=O)c3ccc(S(=O)(=O)N4CCCC4)cc3)o2)c1, the Potency was inconclusive: 89.1 µM [inhibitor, partial curve]. With COc1ccccc1C1/C(=C(/O)c2ccccc2)C(=O)C(=O)N1CC(C)C (stereo not given) the Potency was inconclusive: 100 µM [inhibitor, single point]. With CC(C)N1C(=O)CC(Nc2cccc3cccc(N)c23)C1=O (stereo not given) the Potency was inconclusive: 50.1 µM [inhibitor, partial curve]. For COc1ccc(C2=CSC(/N=C/c3ccc(F)cc3)=NN2)cc1, the Potency was inconclusive: 56.2 µM [inhibitor, partial curve]. For O=C(O)c1ccc(C=NN=C2c3ccccc3-c3ccccc32)cc1, the Potency was inconclusive: 50.1 µM [inhibitor, partial curve]. For COc1ccc(CNC(=O)c2sc3nc4c(c(C(F)(F)F)c3c2N)CCC4)cc1OC, the Potency was inconclusive: 31.6 µM [inhibitor, single point]. CCOC(=O)c1sc2c(c1C)c(=O)n(Cc1ccccc1)c(=O)n2CCN(C)C was tested, and the Potency was inconclusive: 50.1 µM [inhibitor, partial curve]. O=C1NC(=O)/C(=C/c2ccc(-c3cccc([N+](=O)[O-])c3)o2)S1 was tested, and the Potency was inconclusive: 20 µM [inhibitor, full curve]. COc1ccc(N2CCN(C(=O)C3CCN(S(=O)(=O)c4ccc(C)cc4)CC3)CC2)cc1 was tested, and the Potency was active: 39.8 µM. For CCOC(=O)c1cccc(NC(=O)c2cn(-c3cccc(OC)c3)c(=O)c3ccccc23)c1, the Potency was “inactive”. In the case of CCc1nnc(NC(=O)CSc2nnnn2C)s1, the Potency is reported as inconclusive: 89.1 µM [inhibitor, single point]. COc1cc(C)c(NC(=O)C(=S)NCc2ccccc2)cc1C was tested, and the Potency was inconclusive: 89.1 µM [inhibitor, partial curve]. For COc1ccc(N/C(C)=C/C(=O)c2ccccc2)cc1, the Potency was inconclusive: 50.1 µM [inhibitor, partial curve]. O=C(COC(=O)c1ccc(S(=O)(=O)N2CCOCC2)cc1)Nc1ccccc1OC(F)F was tested, and the Potency was “inactive”. For C#CCOCCOCCOCCNc1nc(N2CCN(C(=O)C([C@@H](C)CC)n3cc(C(N)Cc4ccc(O)cc4)nn3)CC2)nc(N2CCN(C(=O)[C@H](CCC(=O)O)n3cc(C(N)Cc4ccc(O)cc4)nn3)CC2)n1 (stereo not given in full), the Potency was active: 50.1 µM. With Cc1cccc(Cn2cc3c(=O)n(Cc4cccc(F)c4)nc-3c3ccccc32)c1 the Potency was inconclusive: 1 µM [inhibitor, full curve]. Oc1c(C(c2ccc(F)cc2)N2CCc3ccccc3C2)sc2ncnn12 (stereo not given) was tested, and the Potency was inconclusive: 56.2 µM [inhibitor, partial curve, poor fit]. With COCCNC(=O)c1nc2c(nnn2Cc2cc(C)ccc2C)c(=O)[nH]1 the Potency was inconclusive: 89.1 µM [inhibitor, single point]. C#CCOCCOCCOCCNc1nc(N2CCN(C(=O)[C@H](CCC(=O)O)n3cc(C(N)CC(C)C)nn3)CC2)nc(N2CCN(C(=O)[C@H](CCC(=O)O)n3cc(C(N)[C@H](C)CC)nn3)CC2)n1 (stereo not given in full) was tested, and the Potency was active: 79.4 µM. For CC1=CC2=NC(=O)/C(=C\c3cccn3CCOc3cc(C)ccc3C)C(=N)N2O1, the Potency was inconclusive: 25.1 µM [inhibitor, full curve, poor fit]. For O=C(CN1CCCC1)Nc1ccc2c(c1)CCC2, the Potency was active: 3.16 µM. CCOc1ccc(Oc2ccc(S(=O)(=O)N3CCOCC3)cc2NC(=O)CCNC(C)=O)cc1 was tested, and the Potency was “inactive”. In the case of O=C(NC(=S)Nc1ccc([N+](=O)[O-])cc1O)C1CCCCC1, the Potency is reported as “inactive”. For COC(=O)c1sc2ncccc2c1OCc1c(Cl)cccc1Cl, the Potency was inconclusive: 56.2 µM [inhibitor, partial curve].
